Source: PubChem BioAssay AID1794842 (National Center for Advancing Translational Sciences (NCATS), 2023)
Fewer than 10 of roughly 2,800 compounds were called active. The call rests on the fitted dose curve; in most records, active means well fitted curve in the direction sought with a large enough effect; inconclusive means small, poorly fitted or top-dose-only effect, or another doubt; inactive means no such curve, though single readings can be large or run the other way. The list shows a part of the results.

biological target: Metallo-beta-lactamase type 2 (Klebsiella pneumoniae) (UniProt C7C422); test: qHTS to identify inhibitors of the New Delhi Metallo-beta-lactamase (NDM): Meropenem screen against the machine-based learning selections.; further: % of control where 0% means no effect; settings: Purified NDM-1, meropenem hydrolysis, absorbance 300 nm; at 38.4 µM (top of the series) unless noted
Procedure, shortened: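 NDM-1 (2 nM final) in 50 mM HEPES pH 7.0, 1 uM Zn2SO4, 0.01% Tween20 was preincubated with compounds for >30 min. Nitrocefin (16.7 uM final) was read at 485 nm after 15 min, and meropenem (50 uM final) at 300 nm after 30 min.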

Chain of UniProt C7C422 (C7C422 whole entry, looked up): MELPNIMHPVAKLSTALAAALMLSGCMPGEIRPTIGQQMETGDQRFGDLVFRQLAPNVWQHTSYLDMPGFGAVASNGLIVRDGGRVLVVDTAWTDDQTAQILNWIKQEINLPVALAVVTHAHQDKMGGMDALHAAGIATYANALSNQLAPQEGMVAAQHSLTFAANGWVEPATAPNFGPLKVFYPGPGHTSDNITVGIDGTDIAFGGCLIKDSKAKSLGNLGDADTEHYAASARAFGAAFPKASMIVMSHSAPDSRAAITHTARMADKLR

Activity change, negative = inhibition, inactive:
NC(=O)[C@H](Cc1ccc(O)cc1)NC(=O)C1=C[C@@H](NC(=O)Nc2ccc(OC(F)(F)F)cc2)[C@@H](O)[C@H](O)C1 -0.0211%, CC(C)(C)c1ccc(C(=O)Nc2nc3c(s2)C[C@@H]2[C@](C)(CO)[C@H](O)CC[C@@]2(C)[C@@H]3CC(=O)NC2CC2)cc1 1.17%, O=C1CCCCC(CNC(=O)c2cc(F)ccc2F)N1 (stereo unspecified) -1.57%, CCCCNC(=O)c1cccc(CN2C(=O)CC(c3ccccc3C)C(C(=O)OCC)=C2C)c1 (stereo unspecified) 5.31%, CN(Cc1cccnc1)c1ccc2ncc(Nc3cccc(N[S+](C)(=O)[O-])c3)n2n1 72.1% [at 57.5 µM], CC(=O)N[C@H]1CC[C@]2(C)CC[C@@H](C(C)C(=O)NC3CCCC3)[C@H](O)[C@H]2[C@@H]1C (stereo partly specified) 0.768% [at 57.5 µM], O=C(COc1ccccc1Cl)N1CCCC(O)(CN2CCCC2)C1 (stereo unspecified) -0.507%, O=C(Cn1nccn1)NC1CC(c2cc(N3CCC(O)C3)ncn2)C1 (stereo unspecified) 3.33%, CCCN1C(=O)Cc2ccccc2C1C(=O)NCc1cccc(C)c1 (stereo unspecified) 0.922%, C=CCN(Cc1cnc(-c2cccc(C)c2)nc1)Cc1ccccn1 18%, CCOCc1nc(C2CCCN(C(=O)c3ccc(C)cc3)C2)no1 (stereo unspecified) -0.353%, CC(C)(C)c1nnc([C@H]2CCN(Cc3ccco3)C2)o1 24.3% [at 76.7 µM], Cc1noc2c(-c3cccc(CO)c3)cc(-c3ccc(F)cc3)nc12 -0.0708% [at 57.5 µM], Cc1ccc2[nH]c(CCCn3cc(-c4nccn4C)nn3)nc2c1C 0.719%, CC(C)C1c2nccn2CCCN1C(=O)c1ccc(Cn2cncn2)o1 (stereo unspecified) 3.75%, CCC[C@H]1C[C@H]1C(=O)N1CCC2(CCC(=O)N(CC(N)=O)C2)CC1 -0.108%, CCc1cc(N2CCOC(c3ccc4cc(OC)ccc4c3)C2)nc(C)n1 (stereo unspecified) 0.291%, CN(Cc1ccccc1)Cc1cn([C@H]2CO[C@H]3[C@@H]2OC[C@@H]3NC(=O)NCc2ccccc2)nn1 -1.86%, CC1=C[C@@H](CNC(=O)Cc2ccccc2)[C@H](C(C)C)C[C@H]1Cc1nc2ccncc2[nH]1 49.5% [at 57.5 µM], CN(C)c1ccc(NC(=S)N[C@H]2CO[C@H]3[C@@H]2OC[C@H]3OC(=O)Nc2cccc3ccccc23)cc1 0.89%, CCCC1=Nc2cc(C(=O)NCCc3ccc(OC)c(OC)c3)ccc2Sc2ccccc21 2.09%, CN(Cc1cc(C[C@@H]2C[C@H](NC(=O)COc3ccccc3)C2(C)C)no1)c1ccccc1 2.11% [at 57.5 µM], COc1ccc(CN2C(=O)COC[C@@H]2[C@H](O)c2ccc(NC(=O)CC(C)(C)C)cc2)cc1 -0.585%, CCN1C(=O)CCc2cc(NC(=O)c3ccc(C(C)C)cc3)ccc21 0.804%, NC(=O)c1nc(CNC(=O)CC(c2ccccc2)c2cccc(Cl)c2)no1 (stereo unspecified) -2.99%, CC(C(=O)N1CCCC1)N1CCC2(CCC(=O)N(CCO)C2)CC1 (stereo unspecified) -3.33%, OCc1ccc(CN2C[C@H](O)C[C@H]2c2nc(-c3ccc(F)cc3)no2)o1 12.8% [at 57.5 µM], Cc1ccc2c(C)c(C(=O)N3CC(OCc4ccccc4F)C3)oc2c1 4.72%, CNS(=O)(=O)c1ccc(C2CC(=O)Nc3cc(O)c(OC)cc32)cc1 (stereo unspecified) -1.2%, COCc1cn(C[C@H]2C[C@@H](NCc3nccs3)[C@H](O)[C@@H]2O)nn1 47.1%, Cc1ccc(S(=O)(=O)Cc2noc([C@@H]3C[C@@H](O)CN3Cc3ccc(S(C)(=O)=O)cc3)n2)cc1 -3.18%, O=C1Nc2ccccc2CC12CCN(Cc1cccnc1)CC2 1.81% [at 57.5 µM], CC(=O)N[C@@H]1C[C@H](Cc2ccccc2)O[C@H](c2c(C)nc3sccn23)C1 -0.712%, CCOC(=O)c1cccc(NC(=O)O[C@@H]2CO[C@H]3[C@@H]2OC[C@@H]3n2nnnc2SC2CCCC2)c1 1.08%, COc1ccc(CN2C=C(C(=O)OCc3noc(-c4cccc(OC)c4)n3)C(C)=NS2(=O)=O)cc1 1.39%, O=C(NCCc1cnc[nH]1)C1CCN(C2CCCCC2)CC1 0.443%, O=C(Nc1ccsc1)N[C@H]1C[C@H]2C(=O)NC[C@@H](CCC(=O)N3CCCCC3)N2C1 6.97% [at 57.5 µM], Cc1noc([C@@H](C)NC(=O)Nc2cccnc2)c1C(=O)O 49.7% [at 57.5 µM], COC(=O)[C@@H]1Cc2nc[nH]c2CN1C(C)C 14.4% [at 76.7 µM], OC(CCc1ccccc1)C1CCN(Cc2nc(-c3ccccn3)no2)CC1 (stereo unspecified) 0.701%, CN(C)S(=O)(=O)CCCN1CC[C@@H](NC(=O)c2ccccn2)[C@H](O)C1 1.55%, COc1cncc([C@@H](NC(=O)Cc2cn3ccsc3n2)C2CC(O)C2)c1 (stereo partly specified) 9.51%, O=C(Nc1ccc(Oc2ccccc2)cc1)N[C@H]1CO[C@H]2[C@@H]1OC[C@H]2OC(=O)Nc1cccc(C(F)(F)F)c1 1.79%, Cc1ccc(S(=O)(=O)N[C@H]2CO[C@H]3[C@@H]2OC[C@H]3OCC(N)=O)cc1 0.722% [at 57.5 µM], CC[C@H]1CN(C(=O)C(C)(C)C)CC[C@H]1CC(=O)NCCSC 1.03% [at 57.5 µM], Cn1ccnc1CN[C@@H]1C[C@H](CO)[C@@H](O)[C@H]1O 0.35% [at 76.7 µM], CC(C)c1ccc(C(=O)N2CCCC[C@H](N(C)C)C2)c(=O)n1C 0.699%, CC(=O)Nc1cccc(-c2ccc3ncn(-c4cccnc4)c(=O)c3n2)c1 11.4% [at 57.5 µM], Oc1ccccc1CN1CCNc2cnc(-c3ccccc3)cc2C1 10.3% [at 57.5 µM], COc1ccc(C(=O)N[C@H]2C[C@H]3C(=O)Nc4ccccc4C(=O)N3C2)cc1 2.49% [at 57.5 µM], O=C(Cc1ccncc1)N1CCC2(CC1)NCCc1c2[nH]c2ccccc12 0.152%, O=C(N[C@H](C1CCNCC1)C1CC(O)C1)c1ccc2nccnc2c1 (stereo partly specified) 59.6%, O=C(c1ccccc1)N1C[C@@H]2OCC(=O)N(c3ccccc3)[C@@H]2C1 2.74% [at 57.5 µM], O=C1Nc2ccc(-c3cccc(C(F)(F)F)c3)cc2C(=O)N2CCN(C(=O)[C@@H]3CSCN3)C[C@H]12 -3.56%, O=C(CN1CC2CC(C1)[C@H]1CCCC(=O)N1C2)Nc1ccccc1 (stereo partly specified) -1.32%, CCOC(=O)c1ccc(N2C(=O)[C@@H]3Cc4nc[nH]c4CN3C2=O)cc1 -1.18% [at 57.5 µM], Cc1cc(CN2CCC(CO)(Cc3ccccc3Cl)CC2)cc(C)c1O 0.408%, COc1ccc(C(=O)NCc2nnc3ccc(-c4ccccc4)nn23)c(OC)n1 8.31%, CC(=O)N1CCN(C(=O)C[C@@H]2C[C@@H](C(C)C)[C@H](CNC(=O)Nc3cccc(F)c3)C=C2C)CC1 0.0244%, O=C(NC1CCCCC1)N[C@H]1CO[C@H]2[C@@H]1OC[C@@H]2n1cc(-c2ccccc2)nn1 0.505% [at 57.5 µM], COC(=O)[C@@H]1Cc2ncn(C)c2CN1S(=O)(=O)c1cccc(C(F)(F)F)c1 38.1% [at 57.5 µM], O=[S+]([O-])(NCC1CN(Cc2ccc(O)cc2)CC12CN(c1ccccc1)C2)c1ccccc1 (stereo unspecified) -0.105%, CCCCCC(=O)N[C@H]1C[C@@H](Cc2cc(COc3ccccc3)on2)C1(C)C -0.284% [at 57.5 µM], COc1ccc([C@@H](NC(=O)Cc2c(F)cccc2Cl)C2CC(O)C2)cn1 (stereo partly specified) 0.991%, OC(c1nc(Nc2ccc(Oc3ccccc3)cc2)n[nH]1)C1CC1 (stereo unspecified) 1.37% [at 57.5 µM], CCOc1ccccc1-c1nc(C2CC(=O)N(c3ccc(C)cc3)C2)no1 (stereo unspecified) -0.61%, CN(Cc1ccccc1)Cc1cc(C[C@@H]2CC[C@H](O)[C@@H](CNC(=O)Nc3ccccc3)O2)no1 3.28%, CCCc1cc(C(=O)N[C@@H]2COCC[C@H]2Oc2ccc(C(=O)O)cc2)n[nH]1 -1.31%, c1csc(-c2[nH]ncc2CNC2CCC3(CCNCC3)CC2)c1 26.7%, CCn1ncc(NC(=O)Cn2ncc3cc(-c4ccc(C(=O)N(C)C)cc4)ccc32)n1 3.65%, CC(C)CN[C@H]1CO[C@H]2[C@@H]1OC[C@@H]2Nc1nccc(C(C)(C)C)n1 -0.944% [at 57.5 µM], COCCNc1nc2cc(C(=O)N3CC[C@H](CO)[C@@H](O)C3)ccc2n1C 0.0233%, CCN(CC)C(=O)[C@@H]1C[C@H](N)CN1C(=O)c1cc2ccccc2n(C)c1=O 1.94%, Cn1ccnc1CNC[C@H]1Cn2c(-c3ccccc3)cnc2CO1 52.1% [at 57.5 µM], CC(C)C1CN(C(=O)c2ccccc2-c2ncc[nH]2)CCC(=O)N1CC1CC1 (stereo unspecified) -1.59%, CC[C@H]1CN(C(C)=O)CC[C@H]1CC(=O)Nc1ccccc1 -2.16% [at 76.7 µM]
